In publication PMC4336329 (PLoS ONE, 2015):
In all, about 310,000 compounds went through this assay and about 2,200 (0.71%) showed an effect of 50% or more. The effect is printed as a negative number. The list shows a part of the results.

target: human ether-à-go-go-related gene (hERG) potassium channel (human, UniProt Q12809); experiment: primary screen, population patch clamp on CHO cells stably expressing hERG
Sequence (Q12809 whole entry, looked up): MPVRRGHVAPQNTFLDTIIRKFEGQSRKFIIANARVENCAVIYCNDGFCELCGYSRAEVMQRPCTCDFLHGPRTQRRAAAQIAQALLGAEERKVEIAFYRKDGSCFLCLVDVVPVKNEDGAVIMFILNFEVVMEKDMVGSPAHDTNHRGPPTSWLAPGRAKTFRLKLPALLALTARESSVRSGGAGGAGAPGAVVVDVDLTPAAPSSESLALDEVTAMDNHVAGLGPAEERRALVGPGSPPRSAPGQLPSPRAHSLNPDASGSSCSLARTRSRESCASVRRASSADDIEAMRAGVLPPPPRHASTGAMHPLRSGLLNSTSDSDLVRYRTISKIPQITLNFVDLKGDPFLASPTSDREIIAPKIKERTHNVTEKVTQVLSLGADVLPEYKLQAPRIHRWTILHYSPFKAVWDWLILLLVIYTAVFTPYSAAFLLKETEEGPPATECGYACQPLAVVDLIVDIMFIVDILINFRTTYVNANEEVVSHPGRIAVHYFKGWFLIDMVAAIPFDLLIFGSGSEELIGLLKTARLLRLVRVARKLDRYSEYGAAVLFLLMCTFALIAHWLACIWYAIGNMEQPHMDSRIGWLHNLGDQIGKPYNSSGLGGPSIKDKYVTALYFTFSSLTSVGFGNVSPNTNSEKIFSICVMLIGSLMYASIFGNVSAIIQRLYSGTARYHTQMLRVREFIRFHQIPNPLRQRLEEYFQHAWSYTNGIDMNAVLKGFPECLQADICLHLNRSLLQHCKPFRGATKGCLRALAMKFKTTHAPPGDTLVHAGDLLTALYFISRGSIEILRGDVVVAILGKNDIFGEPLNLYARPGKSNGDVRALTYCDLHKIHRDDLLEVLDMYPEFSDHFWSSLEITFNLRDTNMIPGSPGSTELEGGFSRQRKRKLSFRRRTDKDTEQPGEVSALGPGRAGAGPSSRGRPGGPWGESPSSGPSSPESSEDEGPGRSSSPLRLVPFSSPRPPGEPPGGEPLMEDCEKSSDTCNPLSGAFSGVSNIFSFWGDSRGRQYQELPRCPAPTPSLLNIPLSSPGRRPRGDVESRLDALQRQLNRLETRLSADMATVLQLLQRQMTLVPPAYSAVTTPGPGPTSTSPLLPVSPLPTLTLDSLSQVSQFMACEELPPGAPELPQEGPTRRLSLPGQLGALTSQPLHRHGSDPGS

SMILES | hERG current change (%, negative = inhibition) at 1uM [%]
O=C(Nc1ccc(Cl)cn1)c1cccc(OCc2ccccc2)c1 | -3
Cc1ccc(CNC(=S)Nc2ccc(NS(=O)(=O)c3ccc(C)cc3)cc2)cc1 | -14.8
Cc1ccc(S(=O)(=O)Nc2cccc3ncccc23)cc1 | 6.95
COCCNC(=O)c1c(C)cc(C)cc1C | 11.8
O=C(O)CCCNC(=O)/C(=C\c1ccc(Cl)cc1)NC(=O)c1ccc(Br)cc1 | 5.19
CC1=CC(C)(C)N2C(=O)C3(C(C#N)=C(N)Oc4cc(C)oc(=O)c43)c3cc(C)cc1c32 (stereo not drawn) | -3.49
CC1(C(=O)N(CC(=O)NC2CCCC2)Cc2ccc(Cl)cc2)CC(=O)N=C2C=CC=CN21 (stereo not drawn) | 5.14
CC(OC(=O)c1ccc(Cl)c(S(=O)(=O)Nc2ccc(F)cc2)c1)C(=O)NC(N)=O (stereo not drawn) | 1.75
CN1CCN(C(=O)Cc2nc3ccccc3[nH]2)CC1 | -0.431
COc1cc(-c2[nH]ncc2CN2CCN(c3cccc(C)n3)CC2)cc(OC)c1OC | -22.7
COc1ccc(-n2ncc3c2CC(C)(C)CC3NC(=O)Cc2nonc2C)cc1 (stereo not drawn) | 9.99
CN(CCCNC(=O)Cn1cc2c(n1)CCCC2)C1CCCCC1 | -6.24
CCOc1ccc(N(CC(=O)NCc2ccccc2Cl)S(=O)(=O)c2c(C)noc2C)cc1 | 18.9
COC(=O)C1=C(C)NC(=O)C1(NS(=O)(=O)c1ccc(C)cc1)C(F)(F)F (stereo not drawn) | 10
O=C(CSc1ccccc1)Nc1nnc(/C=C/c2ccccc2)s1 | -0.537
COc1cc2c(cc1OC)C(c1cc3cc4c(cc3[nH]c1=O)OCO4)N(C(=O)C1CC1)CC2 (stereo not drawn) | 4.07
COC(=O)c1cccc(C23CC4(C2)[C@H](CN(Cc2ccc(C(F)(F)F)cc2)[C@@H]4c2ccccc2)C3c2ccc(Cl)nc2)c1 (stereo partly drawn) | 7.12
Cn1c(SCc2ccc(F)cc2)nnc1-c1cnccn1 | 6.44
Cc1[nH]c2ccccc2c1C(=O)COC(=O)C1CC(=O)N(Cc2ccco2)C1 (stereo not drawn) | 4.33
CCOCCn1ccc2c(OCC(=O)Nc3ccccc3F)cccc2c1=O | 8.05
O=C(O)C(Cc1ccc(O)cc1)N1C(=O)c2c(Cl)c(Cl)c(Cl)c(Cl)c2C1=O (stereo not drawn) | -1.88
Cc1[nH]c(=S)sc1Cc1ccc(Cl)c(Cl)c1 | 8.2

SMILES | hERG current change (%, negative = inhibition) at 1uM [%]
COC(=O)c1ccc(C2C(Oc3ccc(OC)cc3)C(=O)N2CCc2ccc(F)cc2)cc1 (stereo not drawn) | 12.3
CSCCCNC(=S)N1CCN(c2ccc(C(C)=O)cc2)CC1 | -0.341
O=C(ONC1=NCCCCC1)c1ccc(Cl)cc1 | 6.97
Cc1ccc(C(NC(=O)c2ccccc2)C(Cl)(Cl)Cl)cc1 (stereo not drawn) | 3.87
CCCCCCCC(=O)N/N=C/c1ccncc1 | -1.99
Cc1nc2ccccn2c1CN(C)C(=O)C1CCC(=O)N(CCc2cccc(F)c2)C1 (stereo not drawn) | -10.4
COc1ccccc1CNC(=O)CN1C(=O)COc2ccc(S(=O)(=O)NC3CCCC3)cc21 | 10.9
COC(=O)c1cc(NC(=O)c2cccnc2)ccc1N1CCOCC1 | 5.65
Fc1ccc(NC(=S)Nc2cccc3ccccc23)cc1 | 14.1
O=C(c1ccc(-n2cccn2)cc1)N1CCc2ccccc2C1 | -1.88
CCOC(=O)c1sc(NC(=O)c2cc3c(s2)CCC(C)C3)nc1C (stereo not drawn) | 9.63
Fc1ccc(-c2csc3nnc(SCc4cccnc4)n23)cc1 | -20.6
CC1(C)N=C2C(=[N+]1[O-])CCC/C2=N\O | -5.64
Cc1cccc2cc(CN(CCCN(C)C)C(=S)NCCc3ccccc3)c(=O)[nH]c12 | -48.8
CC(=O)Nc1ccc(NC(=O)COc2ccc3c(c2)CCC3)cc1 | 8.65
CCN(CC)C(=O)CSc1nc(O)cc(=O)n1C | 10.8
Cn1c2ccccc2c2cc(/C=C(\NC(=O)c3ccccc3)C(=O)O)ccc21 | 10
CC(=O)N1CCc2c(sc(NC(=O)CN3C(=O)c4ccccc4C3=O)c2C(N)=O)C1 | 14.1
Cc1cc(OCC(=O)N2CCN(c3ccccc3)CC2)c2c(C)cc(=O)oc2c1 | 9.51
COCCNC(=O)C1CC(=O)N(CCc2ccccc2)C1 (stereo not drawn) | 18
CO/N=C/c1ccc(N2CCN(C(=O)c3ccc(C)cc3)CC2)c([N+](=O)[O-])c1 | -67.2
COc1ccccc1CN1CC(C(=O)N2CCCCCCC2)CCC1=O (stereo not drawn) | 9.94

SMILES | hERG current change (%, negative = inhibition) at 1uM [%]
C=C1[C@@H](C)[C@H]2[C@H](Cc3ccccc3)NC(=O)[C@]23OC(=O)/C=C/[C@H](O)CCC[C@@H](C)C/C=C/[C@H]3[C@@H]1O | 21.1
COC(=O)Nc1nnc(CCc2ccccc2)s1 | 2.86
Cc1cc(Cl)c2oc(C(=O)N(C)CC3CCOCC3)c(C)c2c1 | 19.8
CCOc1ccc(-c2cc(C(=O)N3CCC(C)CC3)c3ccccc3n2)cc1 | 10.3
O=C(Nc1ccc(NC(=O)c2ccc3c(c2)OCCO3)cc1)c1ccccc1 | 1.48
Cc1cc(C)cc(N(CC(=O)NC2CCC(C)CC2)S(=O)(=O)c2c(C)noc2C)c1 (stereo not drawn) | 7.37
CSc1nnc2c(n1)OC(c1cn(C)c3ccccc13)N(C(C)=O)c1ccccc1-2 (stereo not drawn) | 12.1
CC(Cl)C(=O)NC(=O)NC12CC3CC(CC(C3)C1)C2 (stereo not drawn) | 17.7
O=C(CN1CCCC1=O)NC1C2CC3CC(C2)CC1C3 (stereo not drawn) | 9.69
C/C(=N\Nc1ccccc1)c1c(O)n(Cc2ccccc2)c(=O)[nH]c1=O | 14.5
CCCCOC(=O)CCc1c(C)[nH]c(=S)[nH]c1=O | 6.96
Cc1ccc(COc2ccc(/C=N/NC(=O)CN3CCCCC3)cc2)cc1 | 12.7
Cc1ccc(-n2ccnc(SCC(=O)NC3CCCC3)c2=O)cc1F | 1.28
CC(C(=O)N1CCN(Cc2ccc3c(c2)OCO3)CC1)n1cc([N+](=O)[O-])cn1 (stereo not drawn) | 10.1
CC(C)(C)OC(=O)NCCc1nnc(SCc2ccccc2)o1 | 10.2
Cc1cc(C(F)(F)F)n2nc(-c3cnn(C)c3C(F)(F)F)cc2n1 | 13.1
COC(=O)c1ccc(S(=O)(=O)c2ccccc2)c(N)c1 | 8.94
O=C(Cc1ccc(S(=O)(=O)N2CCOCC2)s1)Nc1cc(Cl)ccc1Cl | 7.49
CC1=C(C(=O)NCCCOC(C)C)C2(CCC(C)CC2)OC1=O (stereo not drawn) | 14.9
C[C@](N)(CCP(=O)(O)O)C(=O)O.Cl | -5.32
Cc1ccc2nc(-c3cccnc3)cc(C(=O)Nc3ccccc3[N+](=O)[O-])c2c1 | -11.5
COc1ccc(CNC(=O)C2CCCN(S(=O)(=O)c3ccc(-n4cnnn4)cc3)C2)cc1 (stereo not drawn) | 9.01

SMILES | hERG current change (%, negative = inhibition) at 1uM [%]
CCOC(=O)c1[nH]c2ccc(Br)cc2c1NC(=O)CCN1CCC(C(=O)OCC)CC1 | -43.5
COCCNC(=O)C(=O)NCC1OCCN1S(=O)(=O)c1ccc2c(c1)OCCO2 (stereo not drawn) | 12.7
COc1cc(C)ccc1OCCOCCOc1cccc2ccc(C)nc12.O=C(O)C(=O)O | -1.27
CCCc1nc(Cl)c(C#N)c2c1CCCC2 | 12.6
O=C1CC(SCCO)C(=O)N1c1ccccc1 (stereo not drawn) | -6.42
O=C(CSc1cccc2cccnc12)N/N=C/c1cccnc1 | 15.8
CCCC1CCC(=NNC(=S)NCCc2ccccc2)CC1 (stereo not drawn) | 7
CC(=O)Nc1ccc(N=Cc2ccc(OCc3ccccc3)cc2)cc1 | 5.99
Cn1c(-c2ccc(F)cc2)cnc1SCC(=O)Nc1ccccc1 | 3.41
CC1Cc2ccccc2N1C(=O)C1CCCN(S(=O)(=O)c2cccc3cccnc23)C1 (stereo not drawn) | 5.33
CCN(CC)C(=O)Oc1nnc(SC(C)C)n1-c1ccc(Cl)cc1 | 15.6
CCC1CCCCN1CCCNC(=O)CC1Oc2ccc(C)cc2NC1=O (stereo not drawn) | -1.36
C/C(=N\NC(=O)c1ccc([N+](=O)[O-])cc1)c1cc2ccccc2oc1=O | 2.18
NC1=NC(=Nc2ccc(S(N)(=O)=O)cc2)c2ccccc21 | 11.6
COc1ccc(/C(O)=C2\C(=O)C(=O)N(Cc3ccco3)C2c2ccc(OC)cc2OC)cc1 (stereo not drawn) | 8.05
COC(=O)C(Cc1ccc(O)cc1)NC(=O)CCc1nc2ccccc2s1 (stereo not drawn) | 11.7
Cc1[nH]c2ccccc2c1SCc1n[nH]c(=S)n1C | 17.7
O=C(CSc1nnc2ccccn12)NCc1cccs1 | 18
O=C(NNC(=O)c1ccc(NC(=O)C2CC2)cc1)c1ccc(F)cc1 | 8.13
O=C(CSc1nc2ccccc2n1S(=O)(=O)c1cccc([N+](=O)[O-])c1)NCCc1ccccc1 | 10.7
CCOc1ccccc1N(C(=O)Cn1nnnc1-c1ccc(C)o1)C(CC)C(=O)NC(C)(C)C (stereo not drawn) | -5.99
